± gives the standard deviation of the averaged measurements. This is one part of the list.

In the experiment the test system is PfAP2-I AP2 domain 3 (GST-tagged). Kind of experiment: gcPBM binding intensity (ln(normalized median fluorescence intensity)); higher = stronger DNA binding. Put shortly:
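GST-tagged P. falciparum DNA-binding domains, expressed in E. coli (about 25 μg on average), were applied for 1 h to an Agilent 4 × 180k array of primer-extended double-stranded 36-bp intergenic genomic probes plus negative controls. The binding buffer was 1× PBS with 1% milk, 0.2 mg/ml BSA, 0.5% salmon testes DNA and 0.03% Triton X-100. Bound protein was detected with Alexa488 anti-GST antibody and scanned at 488 nm. Binding intensity is the highest Masliner-normalised natural-log median intensity across replicate spots of either probe orientation.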
“TTTTTTTCTTTTTTTTGTACTCATACATACTATCAT [XGTACX_site607]”: the “gcPBM binding intensity (ln)” value was 7.78 ± 0.51. On to “CACGTGTAAATAGTTTTACAATATCTCGATATGTAT [CACACA_negctrl_site785]”, for which the “gcPBM binding intensity (ln)” value amounted to 7.78 ± 0.31. Consider “TTACTATGTAAACACACATGCAATATATGTTAAGCC [TGCATGCA_site253]”, for which the “gcPBM binding intensity (ln)” value is 7.86 ± 0.68. For “TTATATGAAAATTATTGTACAATCTATAAAAAAAAT [XGTACX_site4194]”, the “gcPBM binding intensity (ln)” value stood at 7.88 ± 0.42. Turning to “GTAATTATATACATACGTACATACACATATGTATAT [XGTACX_site4149]”, the “gcPBM binding intensity (ln)” value was 7.87 ± 0.33. As to “GGATATATGAAACATATTGAAAAACCGTTTAGTACA [CACACA_negctrl_site132]”, the “gcPBM binding intensity (ln)” value came out at 7.5 ± 0.57. Turning to “TAATTTTTGTAAACAGTCATGGATTCAAAAAAAAAA [CACACA_negctrl_site593]”, the “gcPBM binding intensity (ln)” value is 7.68 ± 0.8. With “AAGGAAATAAGAAAAAGTACACATAAGTATATAACA [XGTACX_site1173]”, the “gcPBM binding intensity (ln)” value turned out to be 7.93 ± 0.59.

On to “TAATAATCAAACTATACACACATAAATAAATATATA [CACACA_site156]”, for which the “gcPBM binding intensity (ln)” value is 7.59 ± 0.27. “ATATATCCAAATAGATTACATATATATATATAGATA [TGCATGCA_negctrl_site277]”: the “gcPBM binding intensity (ln)” value was found to be 7.49 ± 0.33. On to “AAATATAATAAAATGACACACGCATATATATATATA [CACACA_site8900]”, for which the “gcPBM binding intensity (ln)” value amounted to 9.38 ± 0.46.

With AAATAAGAACATAGAATGCACTTTTTTTTTTTTTCC, the “gcPBM binding intensity (ln)” value was determined as 8.89 ± 0.45. With “ATATATTTATATATTGCACACAAAAAAAAAAAAAAA [CACACA_site8468]”, the “gcPBM binding intensity (ln)” value was determined as 10.5 ± 0.45. Consider “AACATTATAAGACACACACACACATATATAAATATA [CACACA_site6622]”, for which the “gcPBM binding intensity (ln)” value was 8.18 ± 0.35. On to “GTATATATACATAAATGTACATATATATAAAAAATG [XGTACX_site3271]”, for which the “gcPBM binding intensity (ln)” value came to 7.68 ± 0.52. As for “AATATATAAGTCTACTGTACCCAAAATAAAATTTAT [XGTACX_site8727]”, the “gcPBM binding intensity (ln)” value was found to be 7.89 ± 0.26.

On to “TATTGCCCTTGACACACACACATATAAATAAATATA [CACACA_site7220]”, for which the “gcPBM binding intensity (ln)” value is 8.3 ± 0.4. As to “TTAAACCGTGGGAGCACACACACACCCAGACACATA [CACACA_site4337]”, the “gcPBM binding intensity (ln)” value was 8.09 ± 0.38. For “AAATATGTATATATATATATATATATATATATATAT [GTGCAC_negctrl_site335]”, the “gcPBM binding intensity (ln)” value amounted to 9.15 ± 0.55. For “TTATGGGACTCAAATACATGCAAAAATATTTTTAAG [TGCATGCA_site559]”, the “gcPBM binding intensity (ln)” value was found to be 7.88 ± 0.64. In the case of “TAAGGTTAAATAATATGTACATATTATTATATATAT [XGTACX_site6953]”, the “gcPBM binding intensity (ln)” value worked out at 8.28 ± 0.39.

Regarding “AAAGAAAGTACCTTCACACATATAAGAATATAATAT [CACACA_site5214]”, the “gcPBM binding intensity (ln)” value came out at 7.72 ± 0.45. Take “AAAAAAAAAATATATTGTACAAATAGATATGTCAAT [XGTACX_site122]”: the “gcPBM binding intensity (ln)” value was determined as 7.83 ± 0.67. To “TGAAATACGAATTATTGTACTTATGTGTAAGATGGC [XGTACX_site4472]” belongs 8.04 ± 0.56; to “TTATTTTTTTTGTGTTGTACAATTTATTACTACTAA [XGTACX_site346]”, 8 ± 0.47. Turning to “AATATATTTTAATATACACACATATATGCTCTTTAA [CACACA_site9371]”, the “gcPBM binding intensity (ln)” value is 7.82 ± 0.38.

As to “TTATTTATGTGTAGGGCATGCAATCGTGTTTTTAAA [TGCATGCA_site735]”, the “gcPBM binding intensity (ln)” value worked out at 8.01 ± 0.69. Consider “GTATTTATAATACGGCGTACATAAAAAAAAAAAAAA [XGTACX_site3705]”, for which the “gcPBM binding intensity (ln)” value is 8.14 ± 0.45. As for “AAACAAATATGTAGCACACATTCACATAATATATTT [CACACA_site2335]”, the “gcPBM binding intensity (ln)” value turned out to be 8.38 ± 0.48.

“TAATATGCATAAAATTGTACAAACTTACATATAATA [XGTACX_site2752]”: the “gcPBM binding intensity (ln)” value amounted to 7.89 ± 0.38.

In the case of “TTTTTTATAGGACATGCATGTTGTAGAGCTGTATAT [TGCATGCA_site704]”, the “gcPBM binding intensity (ln)” value amounted to 8.1 ± 0.62. As for “TTCATAGAATTATATATTTTAAAAAAAAAAATAATT [CACACA_negctrl_site175]”, the “gcPBM binding intensity (ln)” value stood at 7.31 ± 0.38. Regarding “TGTCAAAATATGTATACACACAATTTTTTTTTTTTT [CACACA_site2465]”, the “gcPBM binding intensity (ln)” value came out at 7.62 ± 0.56.

Consider “TTTTTCATAAGAAGCACACAAAAAATGATAGAGAAT [CACACA_site1417]”, for which the “gcPBM binding intensity (ln)” value turned out to be 8.33 ± 0.68. Regarding “TAATAAATAAAATAGAGTACAGGGATTTCATTAAAT [XGTACX_site8979]”, the “gcPBM binding intensity (ln)” value worked out at 7.92 ± 0.53. To “TATATTACTTATATTTGTACACAGAAATATAAATCA [XGTACX_site13]” belongs 7.75 ± 0.4; to “ACGTAATTAATTCATCAGATATAATTAATAATAATA [XGTACX_negctrl_site550]”, 7.54 ± 0.56; to “ATAAATTTTTTTTTTTTTTTTTTTCTTTTTCTTTGT [CACACA_negctrl_site1231]”, 7.24 ± 0.75. As to “ACTAAAGTGTATCACTGTACAATTCTTCTCTTTTTT [XGTACX_site8705]”, the “gcPBM binding intensity (ln)” value amounted to 7.72 ± 0.64. For the sequence “AATATATTTGTGTATGTGCGCAGTGTGTAATTTATT [GTGCAC_site9765]”, the “gcPBM binding intensity (ln)” value stood at 8.68 ± 0.52. With “CATCTCATATTTTGAAGTACTAAGAAAAGATATAAA [XGTACX_site6867]”, the “gcPBM binding intensity (ln)” value came out at 7.78 ± 0.49. On to “AGAAAAAAATAATGTACACACACATAGATGTTTATA [CACACA_site4271]”, for which the “gcPBM binding intensity (ln)” value was found to be 7.75 ± 0.41. With “TCAATAATAACAAATGAACACACATATATATGAGCA [CACACA_site8663]” the figure was 7.44 ± 0.49. As to “AAAAAAAAAAAAAAAAGTACACAGTAGAATTAAATG [XGTACX_site1843]”, the “gcPBM binding intensity (ln)” value was determined as 8.72 ± 0.39.

The record behind these values is the supplement of paper PMC11417369.
